Drawing on publication PMC7819943, “Rice protein-binding microarrays: a tool to detect cis-acting elements near promoter regions in rice”, this text covers binding signal for 42 sequences.

Some of the results follow.

In the assay the target is T1, OsWOX13 (Oryza sativa, UniProt Q5QMM3 1-267).
T1 sequence: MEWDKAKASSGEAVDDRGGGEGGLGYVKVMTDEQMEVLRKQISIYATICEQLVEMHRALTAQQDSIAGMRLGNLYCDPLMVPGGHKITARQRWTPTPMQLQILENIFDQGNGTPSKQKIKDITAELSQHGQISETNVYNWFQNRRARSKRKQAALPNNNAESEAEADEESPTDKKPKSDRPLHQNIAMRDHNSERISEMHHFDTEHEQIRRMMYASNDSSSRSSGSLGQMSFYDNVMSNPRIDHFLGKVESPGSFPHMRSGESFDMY
Nature of the assay: protein-binding microarray (RPBM); PBS, 2% BSA, 51.3 ng/ul salmon testes DNA, 50 uM zinc acetate, 200 nM TF, 25 C, 1 h; high values mean tight binding. To be noted: protein: recombinant; tags: N-terminal polyhistidine and DsRed monomer fusion (pET32a); label: CyDye5-dUTP incorporated in the synthesized complementary strand; 3' TTTTT single-stranded linker to array surface; dsDNA, one strand shown. A digest of the protocol:
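Per-feature fluorescence intensity (arbitrary units), read on an Axon 4000B scanner, is the binding signal. Transcription factors carrying an N-terminal polyhistidine tag and DsRed fusion were expressed in E. coli BL21-CodonPlus and purified on Ni–NTA. A custom Agilent array, made double-stranded by primer extension with Cy5-dUTP and blocked with 2% BSA, was incubated with 200 nM protein in PBS, 2% BSA, salmon testes DNA and 50 µM zinc acetate at 25 °C for 1 h and then washed.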
Take “CGGATTGATGGAGTATCTTCTTACTACCTTCTAAAACATACGGAGTCACCTAGTGCAG”: the binding signal was 29800 fluorescence intensity (a.u.).
The same measure for “GGGTTAATTGCATTTGGTCTTGTGGATATGCACGTGATTTCGGAGTCACCTAGTGCAG”: 36100 fluorescence intensity (a.u.); for “AATAAATTACAAATTCCGCCTGTAAACATCGAGACAAATACGGAGTCACCTAGTGCAG”: 21800 fluorescence intensity (a.u.).
Regarding “TATGATTAGCTATAAGTGCTACAGTAACCCACATATGCTACGGAGTCACCTAGTGCAG”, the binding signal is 45100 fluorescence intensity (a.u.).
On to “TGAAATTGGAGGGGCTCCTTTGCTAAATGTGACAATGCGACGGAGTCACCTAGTGCAG”, for which the binding signal was 4100 fluorescence intensity (a.u.).
As for “CTAATCAGCTAATCAATCTCATCCTCCTCTCTGCAGCAGCCGGAGTCACCTAGTGCAG”, the figure is 16000 fluorescence intensity (a.u.).
As for “CCAAAATTAAGTCAATCGGGGAACGTTAAACCTAGCCAATCGGAGTCACCTAGTGCAG”, the figure is 12300 fluorescence intensity (a.u.).
For the sequence “AGCTAAATTTGTATCCAGAGGAGAGGAGGGGAAACCTCGGCGGAGTCACCTAGTGCAG”, the binding signal is 6130 fluorescence intensity (a.u.).
The same measure for “TTAATATAAAAGTAATTATTTAAATTGTAGAAACAATTTACGGAGTCACCTAGTGCAG”: 5710 fluorescence intensity (a.u.); for “TTAGACCATTAAATTTAATAGAATAGCTTTGGCGTACATTCGGAGTCACCTAGTGCAG”: 6460 fluorescence intensity (a.u.).
The same measure for “ATATGATTATGTGATAATGTTTGAGAGTACAAACAAATGACGGAGTCACCTAGTGCAG”: 19000 fluorescence intensity (a.u.); for “GGGATTGAGGATGACATGTGGGGCCCACGTGGCCCCACCACGGAGTCACCTAGTGCAG”: 3660 fluorescence intensity (a.u.); for “CCCAATTAATTACAATGGGCCACACGCTCGTGGCCCAACTCGGAGTCACCTAGTGCAG”: 10900 fluorescence intensity (a.u.).
As for “ATCAATAAATTTTAAATTTAGTTTGAAATATTTATTTGGCCGGAGTCACCTAGTGCAG”, the figure is 11000 fluorescence intensity (a.u.); as for “CATTCCAATTGATAGAGGGCTAACCACATTCCAAACATGTCGGAGTCACCTAGTGCAG”, 7110 fluorescence intensity (a.u.); as for “GATGAATTTATTAATTAGGTCTGTAAACAGTTTACATATGCGGAGTCACCTAGTGCAG”, 20300 fluorescence intensity (a.u.).
On to “ATAATTTGATAAATAAACTAAAATTTTAATAATCTAAGAGCGGAGTCACCTAGTGCAG”, for which the binding signal is 23400 fluorescence intensity (a.u.).
As for “TTGTAATTTGCCCAACCAAACACTACTTTCCACCAAATGTCGGAGTCACCTAGTGCAG”, the figure is 5040 fluorescence intensity (a.u.); as for “TCCACTAAACTGGTCCGTCACCCTCGCTGCCCGCTCTGAGCGGAGTCACCTAGTGCAG”, 3670 fluorescence intensity (a.u.); as for “TACACAAATTGCGTGTAAATTGCGAGACGAATCTTTTAAGCGGAGTCACCTAGTGCAG”, 17900 fluorescence intensity (a.u.).
In the case of “TATATAGGTAATTTGTTGCAACGTTATGTGTGGTGGGGATCGGAGTCACCTAGTGCAG”, the binding signal is 5500 fluorescence intensity (a.u.).
Consider “GAGCATAGTATATCACACTATTAGCTCTAAATCATCTATACGGAGTCACCTAGTGCAG”, for which the binding signal is 17100 fluorescence intensity (a.u.).
“AGGTGTGATTATTGTTCTGTTTGGCGCCATTATTATCTAACGGAGTCACCTAGTGCAG”: the binding signal is 16000 fluorescence intensity (a.u.).
The same measure for “ACAAATTGACTAGTAATTATTACGACAAGCGTGTAGGACACGGAGTCACCTAGTGCAG”: 31500 fluorescence intensity (a.u.).
The same measure for “TAGGTAACTATTATATAAATTAGCTATTAAGTTGACTATACGGAGTCACCTAGTGCAG”: 4340 fluorescence intensity (a.u.); for “TCTTAATAATCTCTGCAATTTTCGTGTCAAGAAGCAGTACCGGAGTCACCTAGTGCAG”: 3530 fluorescence intensity (a.u.); for “TAGTCAATTACCACTTCGTCTCTGCATATGTACGTAAAACCGGAGTCACCTAGTGCAG”: 16600 fluorescence intensity (a.u.).
Consider “GAGGTGATTTGCTCTGGTTTTCAGAGAAGGAGGAGGCATTCGGAGTCACCTAGTGCAG”, for which the binding signal is 23700 fluorescence intensity (a.u.).
With “GTGTCAGTGATGGAGCGAGTAATTAACTTCCTCAATGTAACGGAGTCACCTAGTGCAG”, the binding signal was 7740 fluorescence intensity (a.u.).
The same measure for “ACCTACTACATTGCTGAATTCAATCAGCCGCCGAATCTGCCGGAGTCACCTAGTGCAG”: 3240 fluorescence intensity (a.u.).
As for “TCGTTGTAATTAAATCTTCGAAACAAGGCCACTCCTAGATCGGAGTCACCTAGTGCAG”, the figure is 6230 fluorescence intensity (a.u.).
As for “TCCAGAAAGTAATTTAGTTTATTAAAATATTTCTGAAAGTCGGAGTCACCTAGTGCAG”, the figure is 3660 fluorescence intensity (a.u.); as for “TTTATTCTAATTTGAATTGTTCTGGTATGCCAGTACCCGGCGGAGTCACCTAGTGCAG”, 5670 fluorescence intensity (a.u.).
In the case of “CTCAGATTGGTTCATGAAGCTATTGTTGTTGAAATTCTGTCGGAGTCACCTAGTGCAG”, the binding signal is 23000 fluorescence intensity (a.u.).
The same measure for “GATAAGTAAATTAATTGGAAGAAAGAAATCAGTGGGGAGGCGGAGTCACCTAGTGCAG”: 13500 fluorescence intensity (a.u.); for “AATAAATGTACATATGTATAATTAAAATCATCCATACTCACGGAGTCACCTAGTGCAG”: 6540 fluorescence intensity (a.u.); for “GCATAGTTTAATTGGTTAGATTTCTCATGGCACCAATGGTCGGAGTCACCTAGTGCAG”: 28500 fluorescence intensity (a.u.).
As for “AATTAATTATCTAAACGTTGCTAAGGCGAGCAAGCTTATACGGAGTCACCTAGTGCAG”, the figure is 27700 fluorescence intensity (a.u.).
“ACTTGAATAGTGTTAATGCCAATTATCCGAGAACGGAGGCCGGAGTCACCTAGTGCAG”: the binding signal is 11700 fluorescence intensity (a.u.).
“ATTTGACGGACATGATATTCTTCATATGGCAAGAGCCGCACGGAGTCACCTAGTGCAG”: the binding signal was 6460 fluorescence intensity (a.u.).
The same measure for “GAAATGATTTAAGAATGATGATTTAGCATGTGTATGTTTACGGAGTCACCTAGTGCAG”: 26900 fluorescence intensity (a.u.); for “GTTTAAAGAAATTGATGAAAGAAAAGCTTCATTGTTGGCTCGGAGTCACCTAGTGCAG”: 6180 fluorescence intensity (a.u.).
